# Test results as given in the supplement of paper PMC8728848.
# The other results are listed elsewhere or left out.
# B1: CFEM-CGl (Candida glabrata), Q6FRS0 (protein)
# chain: VLATPPACLLACVAQVSKQSSQCHTLNQVGCFCENENTAIKNCLDSICPNGNSDAAYTAFKNSCGDVGKAVASV
# Key:
# Experiment in all cases: glycan array binding signal (z-score within array); higher = stronger binding
# Conditions in all cases: glycan notation: IUPAC condensed, linker removed
# [1] = molecular target: Gal(b1-4)GalNAc(b1-3)[Fuc(a1-2)]Gal(b1-4)GlcNAc
# Outline: (§1)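 The Consortium for Functional Glycomics database supplied 3228 glycan arrays, of which those lacking an available protein sequence were dropped. The binding signal, a within-array Z-score, was averaged across arrays of the same protein sequence and across linkers. Negative scores can be read as non-binding.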
# Gal(b1-4)Glc = molecular target: Gal(b1-4)Glc
# Outline: as §1
# Gal(b1-4)Glc6S = molecular target: Gal(b1-4)Glc6S
# Outline: as §1
# Gal(b1-4)GlcNAc = molecular target: Gal(b1-4)GlcNAc
# Outline: as §1
# [2] = molecular target: Gal(b1-4)GlcNAc(a1-6)Gal(b1-4)GlcNAc
# Outline: as §1
# Gal(b1-4)GlcNAc(b1-2)Man = molecular target: Gal(b1-4)GlcNAc(b1-2)Man
# Outline: as §1
# [3] = molecular target: Gal(b1-4)GlcNAc(b1-2)Man(a1-3)Man(b1-4)GlcNAc(b1-4)GlcNAc
# Outline: as §1
# [4] = molecular target: Gal(b1-4)GlcNAc(b1-2)Man(a1-3)[Gal(b1-4)GlcNAc(b1-2)Man(a1-6)]Man(b1-4)GlcNAc(b1-4)GlcNAc
# Outline: as §1
# [5] = molecular target: Gal(b1-4)GlcNAc(b1-2)Man(a1-3)[Gal(b1-4)GlcNAc(b1-2)Man(a1-6)]Man(b1-4)GlcNAc(b1-4)[Fuc(a1-6)]GlcNAc
# Outline: as §1
# [6] = molecular target: Gal(b1-4)GlcNAc(b1-2)Man(a1-3)[Gal(b1-4)GlcNAc(b1-2)Man(a1-6)][Gal(b1-4)GlcNAc(b1-4)]Man(b1-4)GlcNAc(b1-4)[Fuc(a1-6)]GlcNAc
# Outline: as §1
# [7] = molecular target: Gal(b1-4)GlcNAc(b1-2)Man(a1-3)[Gal(b1-4)GlcNAc(b1-2)Man(a1-6)][GlcNAc(b1-4)]Man(b1-4)GlcNAc(b1-4)[Fuc(a1-6)]GlcNAc
# Outline: as §1
# [8] = molecular target: Gal(b1-4)GlcNAc(b1-2)Man(a1-3)[GlcNAc(b1-2)Man(a1-6)]Man(b1-4)GlcNAc(b1-4)GlcNAc
# Outline: as §1
# [9] = molecular target: Gal(b1-4)GlcNAc(b1-2)Man(a1-3)[GlcNAc(b1-4)][Gal(b1-4)GlcNAc(b1-2)Man(a1-6)]Man(b1-4)GlcNAc(b1-4)GlcNAc
# Outline: as §1
# [10] = molecular target: Gal(b1-4)GlcNAc(b1-2)Man(a1-3)[Man(a1-6)]Man(b1-4)GlcNAc(b1-4)GlcNAc
# Outline: as §1
# [11] = molecular target: Gal(b1-4)GlcNAc(b1-2)Man(a1-6)Man(b1-4)GlcNAc(b1-4)GlcNAc
# Outline: as §1
# [12] = molecular target: Gal(b1-4)GlcNAc(b1-2)Man(a1-6)[GlcNAc(b1-2)Man(a1-3)]Man(b1-4)GlcNAc(b1-4)GlcNAc
# Outline: as §1
# [13] = molecular target: Gal(b1-4)GlcNAc(b1-2)Man(a1-6)[Man(a1-3)]Man(b1-4)GlcNAc(b1-4)GlcNAc
# Outline: as §1
# [14] = molecular target: Gal(b1-4)GlcNAc(b1-2)[Gal(b1-4)GlcNAc(b1-4)]Man(a1-3)[Gal(b1-4)GlcNAc(b1-2)Man(a1-6)]Man(b1-4)GlcNAc(b1-4)GlcNAc
# Outline: as §1
# [15] = molecular target: Gal(b1-4)GlcNAc(b1-2)[Gal(b1-4)GlcNAc(b1-4)]Man(a1-3)[Gal(b1-4)GlcNAc(b1-2)[Gal(b1-4)GlcNAc(b1-6)]Man(a1-6)]Man(b1-4)GlcNAc(b1-4)GlcNAc
# Outline: as §1
# [16] = molecular target: Gal(b1-4)GlcNAc(b1-2)[Gal(b1-4)GlcNAc(b1-4)]Man(a1-3)[GlcNAc(b1-4)][Gal(b1-4)GlcNAc(b1-2)Man(a1-6)]Man(b1-4)GlcNAc(b1-4)GlcNAc
# Outline: as §1
# [17] = molecular target: Gal(b1-4)GlcNAc(b1-2)[Gal(b1-4)GlcNAc(b1-4)]Man(a1-3)[GlcNAc(b1-4)][Gal(b1-4)GlcNAc(b1-2)[Gal(b1-4)GlcNAc(b1-6)]Man(a1-6)]Man(b1-4)GlcNAc(b1-4)GlcNAc
# Outline: as §1
# [18] = molecular target: Gal(b1-4)GlcNAc(b1-2)[Gal(b1-4)GlcNAc(b1-6)]Man(a1-6)[Gal(b1-4)GlcNAc(b1-2)Man(a1-3)]Man(b1-4)GlcNAc(b1-4)GlcNAc
# Outline: as §1
binder,measurement,setting,value
B1,glycan array binding signal (z-score),[1],-0.247
same,glycan array binding signal (z-score),Gal(b1-4)Glc,-0.358
same,glycan array binding signal (z-score),Gal(b1-4)Glc6S,-0.011
same,glycan array binding signal (z-score),Gal(b1-4)GlcNAc,-0.25
same,glycan array binding signal (z-score),[2],0.356
same,glycan array binding signal (z-score),Gal(b1-4)GlcNAc(b1-2)Man,-0.494
same,glycan array binding signal (z-score),[3],-0.351
same,glycan array binding signal (z-score),[4],-0.128
same,glycan array binding signal (z-score),[5],-0.299
same,glycan array binding signal (z-score),[6],-0.455
same,glycan array binding signal (z-score),[7],-0.334
same,glycan array binding signal (z-score),[8],-0.327
same,glycan array binding signal (z-score),[9],-0.453
same,glycan array binding signal (z-score),[10],-0.303
same,glycan array binding signal (z-score),[11],-0.362
same,glycan array binding signal (z-score),[12],-0.319
same,glycan array binding signal (z-score),[13],-0.336
same,glycan array binding signal (z-score),[14],0.018
same,glycan array binding signal (z-score),[15],-0.351
same,glycan array binding signal (z-score),[16],-0.374
same,glycan array binding signal (z-score),[17],-0.386
same,glycan array binding signal (z-score),[18],-0.525
